Test results reported in PubChem BioAssay AID1963576 (National Center for Advancing Translational Sciences (NCATS), 2024).
Screen size: about 46,000 compounds; about 60 (0.1%) were called active. About 3% were inconclusive and are not listed. Calls follow the shape of the dose curve; as a rule, active = well fitted inhibition curve with a large enough effect; inconclusive = small, poorly fitted or top-dose-only effect; inactive = no such curve, though single readings can be large or run the other way. The list shows a part of the results.

experiment: Primary qHTS assay for Inhibitors of ovarian cancer metastasis using an organotypic tumor microenvironment (TME) model.; also: nearly all actives have a fitted effect of over 65% in size;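 as to activity change, negative = inhibition: plate controls were DMSO wells for no effect and tomatine positive control wells for full effect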; details: SKOV3ip1-GFP adhesion/invasion on 3D omental model, fluorescence; series mostly up to 45.8 µM; activity change, negative = inhibition: at the top concentration
Method in brief: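 Adhesion/invasion was scored as fixed GFP-labeled SKOV3ip1 cell counts (488/509 nm), normalized to DMSO and tomatine controls. Cancer cells in serum-free medium, with four compound doses (0.36-46 umol/L), sat 2 hr at RT then 16 hr at 37 C on a 48 hr fibroblast/mesothelial/ECM culture.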

SMILES | outcome | activity change, negative = inhibition
c1ccc(CNc2ncnc3[nH]ncc23)cc1 | inactive | –
COc1ccc(-c2nc(CCNC(=O)Cc3ccc(F)cc3)cs2)cc1 | – | inactive: -1.14%
Cc1cccc(C(=O)Nc2nc3c(s2)CCCC3)c1 | – | inactive: -13.6%
O=C(NC1CC(=O)N(c2ccccc2)C1)c1cccs1 (stereo unspecified) | – | inactive: -2.1%
Cc1cccc(N2CCN(C(=O)CCNS(=O)(=O)c3ccc4c(c3)CCN4C(=O)C3CC3)CC2C)c1 (stereo unspecified) | inactive | –
COc1ccc(N2CCN(C(=O)c3c(C)nn(-c4ccc(F)cc4)c3-n3cccc3)CC2)cc1 | inactive | –
CCc1ccccc1NC(=O)N1CC(CC)Oc2ccc(Cl)cc21 (stereo unspecified) | – | inactive: -2.74%
CCOCCc1nn2c(=O)cc(COC(=O)c3ccccc3NC(=O)c3cccs3)nc2s1 | – | inactive: 3.95%
CSc1ccc(CCNC(=O)c2ccc3c(c2)nc2n3CCC(C)C2)cc1 (stereo unspecified) | inactive | –
COC(=O)c1ccc(NC(=O)c2cc3cc(C)ccc3n2C)cc1 | – | inactive: 3.73%
COc1ccc(NC(=O)CSc2nc3ccccc3n2CC(=O)NCc2ccc(F)cc2)cc1 | – | inactive: -5.64%
COc1ccc(-c2c3c(=O)n(C)c(=O)n(C)c3c3n2-c2ccccc2NC3c2ccccc2OC)cc1 (stereo unspecified) | – | inactive: -42.2%
COc1ccc(NC(=O)c2ccc(-c3nc(COc4ccccc4)c(C)o3)cc2)cc1 | inactive | –
COc1ccc(S(=O)(=O)N2CCC(C(=O)Nc3ccc(Oc4ccccc4)cc3)CC2)cc1OC | – | inactive: -8.57%
CCOc1ccc(NC(=O)CSc2nnc3c(C)cc4ccccc4n23)cc1 | – | inactive: -3%
CCCCSCCCNC(=O)c1cn(CC)c2ccc(S(=O)(=O)N3CCOCC3)cc2c1=O | inactive | –
CCc1ccccc1NC(=O)Cn1nc(-c2cc(C)ccc2C)c2c(c1=O)CCCC2 | inactive | –
O=c1c2[nH]c3ccccc3c2nc(SCc2ccccc2F)n1-c1ccc(F)cc1 | inactive | –
Cc1ccc2c(CC(=O)Nc3ccc(S(=O)(=O)N4CCC(C)CC4)cc3)coc2c1 | – | inactive: 16.3%
CC1CCc2nc3ccc(S(=O)(=O)N4CCC(C(=O)NCc5ccccc5Cl)CC4)cc3c(C(=O)O)c2C1 (stereo unspecified) | inactive | –
COc1cc(NC(=O)Nc2nnc(N3CCCCC3)s2)cc(OC)c1 | – | inactive: -7.3%
Cc1cccc(NC(c2cccc(Cl)c2)c2ccc3cccnc3c2O)n1 (stereo unspecified) | inactive | –
CCCn1c2ccccc2c2cnn(CC(=O)Nc3ccccc3OC)c(=O)c21 | – | inactive: -6.96%
COC(=O)c1ccccc1NC(=O)Cn1nc(C)c2nn(-c3ccc(Cl)cc3)c(C)c2c1=O | – | inactive: -9.67%

SMILES | outcome | activity change, negative = inhibition
O=C(CSc1nc2c(c(=O)[nH]1)CN(Cc1ccc3c(c1)OCO3)CC2)Nc1cc(F)ccc1F | – | inactive: 5.69%
Cc1ccc(CNC(=O)c2ccc3oc(=O)n(Cc4ccccc4)c3c2)cc1 | inactive | –
COc1ccc(Cl)cc1NC(=O)C1CCCN(S(=O)(=O)c2ccc3c(c2)CCCC(=O)N3)C1 (stereo unspecified) | – | inactive: 3.06%
Cc1ccccc1OCC(=O)Nc1ccc(OCc2cc(=O)n3ccccc3n2)cc1 | – | inactive: 24.4%
CCCCN(CCCNC(=O)c1cc(Nc2ccc(OC)cc2OC)nc2ccccc12)Cc1ccccc1 | inactive | –
CCOc1ccccc1N(C)C(=O)c1sc2nc3n(c(=O)c2c1C)CCCC3 | – | inactive: -4.52%
COc1ccc(-c2cn3nc(N4CCCC(C(=O)Nc5ccccc5F)C4)sc3n2)cc1 (stereo unspecified) | inactive | –
COc1ccc(NC(=O)CSc2nccn2C2CCCC2)cc1OC | – | inactive: -6.37%
Cc1nn(CC(=O)Nc2ccc(C(C)C)cc2)c(=O)c2c(C)n(-c3ccc(Cl)cc3)nc12 | – | inactive: -14.2%
COc1ccc(NC(=O)CSc2nc(-c3ccccc3)cc(-c3cc(OC)c(OC)c(OC)c3)c2C#N)c(OC)c1 | – | inactive: 2.69%
CCOC(=O)c1c(NC(=O)CSc2cn(CCNC(=O)c3ccc(OC)cc3)c3ccccc23)sc2c1CCC2 | – | inactive: 8.42%
CC(=O)N1CCc2cc(CNS(=O)(=O)c3cccs3)ccc21 | – | inactive: -3.68%
COc1ccc(-c2nnc(SCC(=O)Nc3cccc(C)c3)s2)cc1 | – | inactive: 1.3%
CCCCOC(=O)c1ccc(NC(=O)C2(c3cccs3)CCOCC2)cc1 | inactive | –
CC(C)(Oc1ccc(Cl)cc1)C(=O)Nc1ccc(-c2nc3ncccc3o2)cc1 | inactive | –
COc1ccccc1N1CCN(S(=O)(=O)CCNC(=O)c2cc(=O)c3ccccc3o2)CC1 | – | inactive: -0.358%
Cn1ccc2cc(S(=O)(=O)N3CCN(C(=O)Nc4cccc(F)c4)CC3)ccc21 | – | inactive: -3.06%
COc1ccc(NC(=O)C(c2ccc(OC)cc2)N(C)C(=O)Cc2cccs2)cc1 (stereo unspecified) | – | inactive: 4.04%
Cc1ccccc1C(=O)Nc1cccc(-c2nc3cccnc3s2)c1 | – | inactive: -16.8%
COc1ccc(C(CNC(=O)COc2cc(C)c(Cl)c(C)c2)N2CCCCC2)cc1 (stereo unspecified) | – | inactive: -21.9%
CN(C)CCc1c[nH]c2ccc(Cn3cncn3)cc12 | – | inactive: 13.5%
CCCN(CCC)C(=O)c1c[nH]c2ccc(S(=O)(=O)N(C)c3ccc(Cl)cc3)cc2c1=O | – | inactive: -2.98%
COc1cccc(CNC(=O)CCc2c(C)c3cc4c(C)coc4cc3oc2=O)c1 | – | inactive: -5.63%
COc1cccc(N2CCN(C(=O)CCn3nc(C)c(S(=O)(=O)N4CCCC4)c3C)CC2)c1 | inactive | –

SMILES | outcome | activity change, negative = inhibition
O=C(CSc1nc(=O)n(Cc2ccncc2)c2c1CCC2)Nc1ccccc1 | – | inactive: 32%
COc1ccc(Cn2ccc3nc(C)c(C(=O)Nc4ccc(OC)c(OC)c4)cc3c2=O)cc1 | – | inactive: 80.9%
CCCC(=O)N(c1ccc2oc3c(c2c1)CCCC3)S(=O)(=O)c1ccc(CC)cc1 | – | inactive: 3.64%
Cc1ccc(OCc2cc(=O)n3c4c(sc3n2)CCCC4)c(C)c1 | inactive | –
O=c1c(S(=O)(=O)c2ccccc2)cn(Cc2ccc(F)cc2)c2cc(N3CCCC3)c(F)cc12 | – | inactive: -14.5%
COc1cccc(CNC(=O)C2CCC(CNS(=O)(=O)c3cccs3)CC2)c1 (stereo unspecified) | – | inactive: 4.9%
COc1ccc(C=Cc2cc(OC)c(OC)c(OC)c2)cc1NC(=O)[C@H](N)CO | – | inactive: 29.1%
COc1ccc(NCc2nc3ccccc3n2CCOc2ccccc2C)cc1 | – | inactive: 0.649%
CC1CCN(S(=O)(=O)c2ccc3c(c2)N(CC(=O)NCc2ccccc2Cl)C(=O)CO3)CC1 | inactive | –
COc1cccc(NC(=O)c2sc(-n3nc(C)c(Cc4ccccc4Cl)c3C)nc2C)c1 | – | inactive: 15.8%
COc1ccc(OC)c(-n2c(=O)[nH]c3cc(C(=O)NCCc4ccc(OC)c(OC)c4)ccc3c2=O)c1 | – | inactive: -5.88%
Cc1ccccc1NC(=O)c1ccc(NC(=O)N2CCSc3ncccc32)cc1 | – | inactive: 32.6%
COCCn1c(C)cc(O)c(C(c2ccccc2)N2CCN(c3ccc(F)cc3)CC2)c1=O (stereo unspecified) | – | inactive: 7.77%
Cc1ccc(CNS(=O)(=O)c2ccc(F)c(C(=O)Nc3ccc(C)c(F)c3)c2)cc1 | – | inactive: -23.6%
Cc1ccc(N(C)C(=O)Cn2nc(Cc3ccncc3)c3ccccc3c2=O)cc1C | – | inactive: 2.43%
COC(=O)c1c(SC)nc2ccccc2c1OCc1cccc(C)c1 | inactive | –
O=C(NCCc1ccc(Cl)cc1)c1ccc(CS(=O)(=O)Cc2ccc(F)cc2)o1 | – | inactive: -6.39%
O=C(Nc1ccc(F)cc1)c1ccc(-n2cnc3cccnc32)cc1 | – | inactive: -2.33%
O=C(NCCS(=O)(=O)N1CCN(c2ccccc2F)CC1)c1cc(=O)c2ccccc2o1 | – | inactive: -23.8%
COc1cccc(COC(=O)c2nn(-c3ccccc3)nc2N)c1 | – | inactive: -8.24%
CCC(CC)C(=O)Nc1cccc(-c2nc3cccnc3s2)c1 | inactive | –
CCN(CC)c1ccc(NC(=O)CCS(=O)(=O)c2cccc3nsnc23)c(C)c1 | – | inactive: 0.0448%
COc1ccc(C(=O)NCC(c2cccnc2)N2CCc3ccccc3C2)cc1 (stereo unspecified) | inactive | –
CCOC(=O)c1[nH]c(C)c(CCC(=O)Nc2cc(Cl)ccc2C)c1C | – | inactive: -2.2%

SMILES | outcome | activity change, negative = inhibition
Cc1ccc(CNC(=O)C2CCN(c3nn4cc(-c5ccc(F)cc5)nc4s3)CC2)cc1 | – | inactive: 9.87%
CCOc1ccc(-c2nc(Cn3c(=O)cc(-c4ccccc4)c4c(C)nn(C)c43)c(C)o2)cc1OC | – | inactive: -2.96%
COc1cc(OC)c(NC(=O)C(C)n2c(=O)cc(-c3ccccc3)c3c(C)nn(C)c32)cc1Cl (stereo unspecified) | – | inactive: -2.95%
CCc1ccc(NC(=O)N2CC=C(c3c[nH]c4ccccc34)CC2)cc1 | inactive | –
Cc1csc2nc(COC(=O)c3ccccc3NC(=O)c3ccccc3Cl)cc(=O)n12 | – | inactive: -6.28%
CNC(=O)C1CCC(Cn2c(=O)c3sccc3n(Cc3ccccc3)c2=O)CC1 (stereo unspecified) | – | inactive: 4.14%
COc1ccccc1CCNC(=O)c1cc2c(=O)n3cccc(C)c3nc2n1C | – | inactive: -4.1%
Cc1cn2c(=O)cc(COC(=O)c3cccc(NC(=O)C(C)Oc4ccccc4)c3)nc2s1 (stereo unspecified) | – | inactive: 0.824%
Cc1cc(C)c2c(n1)nn1c(C)c(CCC(=O)Nc3ccc(C)c(Cl)c3)c(C)nc21 | inactive | –
CCOc1ccccc1NC(=O)c1c(NC(=O)C(C)Oc2cccc(Cl)c2)sc2c1CCCCC2 (stereo unspecified) | – | inactive: 0.168%
Cc1cc(S(=O)(=O)Nc2cc3c(cc2C)n(C)c(=O)c(=O)n3C)ccc1F | – | inactive: 4.7%
CCSC1=NC2(CCN(C(=O)NC3CCCCC3)CC2)N=C1c1ccc(C)cc1 | – | inactive: 1.15%
COc1ccc(-n2nc3cc(C)c(NC(=O)COc4cccc(C)c4)cc3n2)cc1 | inactive | –
COc1cccc(OCc2nc3ccccc3n2Cc2ccccc2)c1 | – | inactive: -15.2%
COc1cccc(CNC(=O)C(=O)NCC(c2cccs2)S(=O)(=O)c2cccs2)c1 (stereo unspecified) | – | inactive: 11%
CC1=C(C(=O)Nc2ccc(Cl)cc2)C(c2cccs2)n2nc(SCc3cccc(Cl)c3)nc2N1 (stereo unspecified) | inactive | –
CCOc1ccc(CC(=O)Nc2c(C(=O)c3ccc(Cl)cc3)oc3ccccc23)cc1OCC | – | inactive: -4.95%
CCn1c(Oc2ccc(F)cc2F)nc2c1c(=O)n(C)c(=O)n2C | inactive | –
Cc1cccc(S(=O)(=O)c2cn(Cc3ccccc3)c3cc(N4CCC(C)CC4)c(F)cc3c2=O)c1 | – | inactive: -4.04%
CCc1ccc(NC(=O)CN2C(=O)C3(SCC(=O)N3c3ccccc3)c3ccccc32)cc1 (stereo unspecified) | – | inactive: -3.7%
Cc1ccc(Nc2nc(C)cc(C)n2)c(C(=O)O)c1 | – | inactive: -10.7%
COc1ccc(NC(=O)c2sc3nc(C)c(C(=O)Nc4ccc(C)cc4C)c(-c4ccc(C)o4)c3c2N)cc1 | – | inactive: 3.09%
COc1ccc(NC(=O)Cn2nc(-c3ccncc3)ccc2=O)cc1Cl | – | inactive: 7.11%
Cc1ccc(Cl)cc1NC(=O)CSC1=Nc2ccccc2C2=NC(Cc3ccccc3)C(=O)N12 (stereo unspecified) | – | inactive: -6.45%
